From the supplement of paper PMC4604168 (melanoma cell lines)
The list shows a part of the results. Most values come without repeats; read them as rough.

test system: C32; experiment: cell count relative to DMSO control; melanoma cells; higher = more viable cells; details: library dose: standard library concentration; 72 h
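Also: cells treated in 1,536-well plates, then fixed and DAPI-stained, with nuclei counted from automated high-throughput microscope images.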

SMILES	cell count
O=C(O)c1ccc2c(c1)nc(Nc1cccc(Cl)c1)c1ccncc12 + CC(C)CCN1c2nc(Nc3cc(F)c(O)c(F)c3)ncc2N(C)C(=O)C1C [BID1870] (first compound 2 µM, partner dose 1 µM)	91.1%
Cc1cc(N2CCOCC2)cc2[nH]c(-c3c(NC[C@@H](O)c4cccc(Cl)c4)cc[nH]c3=O)nc12 + Cn1cc(/C=C2\C(=O)Nc3cccnc32)c2ccccc21 [GW441756] (first compound 1 µM, partner dose 2 µM)	94.5%
O=C(Nc1ccccc1)c1cc([N+](=O)[O-])ccc1Cl + O=C1NC(=O)/C(=C/c2ccc(-c3ccc(F)cc3O)o2)S1 [AS252424] (first compound 10 µM, partner dose 5 µM)	104%
O=C(O)c1ccc2c(c1)nc(Nc1cccc(Cl)c1)c1ccncc12 + COc1ccc(COc2ccc(Cc3cnc(N)nc3N)cc2OC)cc1 [GW2580] (first compound 2 µM, partner dose 5 µM)	91.7%
O=C(O)[C@@H]1[O][Sb](=[O])([O][Sb]2(=[O])[O][C@H]([C@H](O)CO)[C@H](O)[C@H](C(=O)O)[O]2)[O][C@H]([C@H](O)CO)[C@@H]1O (stereo partly drawn) [stibogluconate] + Cn1cc(/C=C2\C(=O)Nc3cccnc32)c2ccccc21 [GW441756] (first compound 10 µM, partner dose 2 µM)	95.7%
O=C(O)[C@@H]1[O][Sb](=[O])([O][Sb]2(=[O])[O][C@H]([C@H](O)CO)[C@H](O)[C@H](C(=O)O)[O]2)[O][C@H]([C@H](O)CO)[C@@H]1O (stereo partly drawn) [stibogluconate] + Cc1cc([N+](=O)[O-])ccc1NS(=O)(=O)c1cc(Cl)ccc1Cl [FH535] (first compound 10 µM, partner dose 5 µM)	82.1%
O=C(Nc1cc(C(F)(F)F)cc(C(F)(F)F)c1)c1cc(Cl)ccc1O + O=C(Nc1ccccc1)c1cc([N+](=O)[O-])ccc1Cl [GW9662] (first compound 0.08 µM, partner dose 10 µM)	98.9%
Cc1cc(N2CCOCC2)cc2[nH]c(-c3c(NC[C@@H](O)c4cccc(Cl)c4)cc[nH]c3=O)nc12 + O=S(=O)(c1ccccc1)N(CC(F)(F)F)c1ccc(C(O)(C(F)(F)F)C(F)(F)F)cc1 [T0901317] (first compound 1 µM, partner dose 7 µM)	103%
O=C(Nc1cc(C(F)(F)F)cc(C(F)(F)F)c1)c1cc(Cl)ccc1O + O=C1NC(=O)/C(=C/c2ccc(-c3ccc(F)cc3O)o2)S1 [AS252424] (first compound 0.08 µM, partner dose 5 µM)	109%
O=C(O)c1ccc2c(c1)nc(Nc1cccc(Cl)c1)c1ccncc12 + CCN(CC)CCCCNc1ncc2cc(-c3cc(OC)cc(OC)c3)c(NC(=O)NC(C)(C)C)nc2n1 [PD173074] (first compound 2 µM, partner dose 0.5 µM)	82.4%
O=C(Nc1cc(C(F)(F)F)cc(C(F)(F)F)c1)c1cc(Cl)ccc1O + COC(=O)c1sccc1S(=O)(=O)Nc1ccc(Nc2ccccc2)cc1OC [GSK0660] (first compound 0.08 µM, partner dose 5 µM)	110%
O=C(O)c1ccc2c(c1)nc(Nc1cccc(Cl)c1)c1ccncc12 + COc1cc(N2CCC(N3CCN(C)CC3)CC2)ccc1Nc1ncc(Cl)c(Nc2ccccc2S(=O)(=O)C(C)C)n1 [NVP-TAE684] (first compound 2 µM, partner dose 0.4 µM)	77.8%
Cc1cc(N2CCOCC2)cc2[nH]c(-c3c(NC[C@@H](O)c4cccc(Cl)c4)cc[nH]c3=O)nc12 + O=C1NC(=O)/C(=C/c2ccc(-c3ccc(F)cc3O)o2)S1 [AS252424] (first compound 1 µM, partner dose 5 µM)	88.9%
O=C(O)[C@@H]1[O][Sb](=[O])([O][Sb]2(=[O])[O][C@H]([C@H](O)CO)[C@H](O)[C@H](C(=O)O)[O]2)[O][C@H]([C@H](O)CO)[C@@H]1O (stereo partly drawn) [stibogluconate] + COc1cc(N2CCC(N3CCN(C)CC3)CC2)ccc1Nc1ncc(Cl)c(Nc2ccccc2S(=O)(=O)C(C)C)n1 [NVP-TAE684] (first compound 10 µM, partner dose 0.4 µM)	75.2%
O=C(O)c1ccc2c(c1)nc(Nc1cccc(Cl)c1)c1ccncc12 + O=c1cc(-c2cccc3c2Sc2ccccc2S3)oc(N2CCOCC2)c1 [KU55933] (first compound 2 µM, partner dose 5 µM)	84.4%
O=C(Nc1ccccc1)c1cc([N+](=O)[O-])ccc1Cl + COc1ccc(COc2ccc(Cc3cnc(N)nc3N)cc2OC)cc1 [GW2580] (first compound 10 µM, partner dose 5 µM)	113%
O=C(O)[C@@H]1[O][Sb](=[O])([O][Sb]2(=[O])[O][C@H]([C@H](O)CO)[C@H](O)[C@H](C(=O)O)[O]2)[O][C@H]([C@H](O)CO)[C@@H]1O (stereo partly drawn) [stibogluconate] + O=c1cc(-c2cccc3c2Sc2ccccc2S3)oc(N2CCOCC2)c1 [KU55933] (first compound 10 µM, partner dose 5 µM)	103%

SMILES	cell count
O=C(O)c1ccc2c(c1)nc(Nc1cccc(Cl)c1)c1ccncc12 + COc1ccc(-c2ccc3c(N4CCOCC4)nc(N4C[C@@H](C)O[C@@H](C)C4)nc3n2)cc1CO [KU0063794] (first compound 2 µM, partner dose 0.1 µM)	103%
O=C(Nc1ccccc1)c1cc([N+](=O)[O-])ccc1Cl + CCN(CC)CCCCNc1ncc2cc(-c3cc(OC)cc(OC)c3)c(NC(=O)NC(C)(C)C)nc2n1 [PD173074] (first compound 10 µM, partner dose 0.5 µM)	95.5%
Cn1nnc2c(C(N)=O)ncn2c1=O [temozolomide] + COc1cc2ncnc(Nc3ccc(Oc4ccccc4)cc3)c2cc1OC [SrcI1] (first compound 10 µM, partner dose 10 µM)	99.9%
O=C(Nc1ccccc1)c1cc([N+](=O)[O-])ccc1Cl + COC(=O)c1sccc1S(=O)(=O)Nc1ccc(Nc2ccccc2)cc1OC [GSK0660] (first compound 10 µM, partner dose 5 µM)	100%
Cc1cc(N2CCOCC2)cc2[nH]c(-c3c(NC[C@@H](O)c4cccc(Cl)c4)cc[nH]c3=O)nc12 + c1cc(-c2cnn3cc(-c4ccc(OCCN5CCCCC5)cc4)cnc23)ccn1 [Dorsomorphin] (first compound 1 µM, partner dose 2 µM)	65.4%
Cc1cc(N2CCOCC2)cc2[nH]c(-c3c(NC[C@@H](O)c4cccc(Cl)c4)cc[nH]c3=O)nc12 + COc1ccc(COc2ccc(Cc3cnc(N)nc3N)cc2OC)cc1 [GW2580] (first compound 1 µM, partner dose 5 µM)	109%
Cn1nnc2c(C(N)=O)ncn2c1=O [temozolomide] + O=C(Nc1ccccc1)c1cc([N+](=O)[O-])ccc1Cl [GW9662] (first compound 10 µM, partner dose 10 µM)	102%
O=C(Nc1cc(C(F)(F)F)cc(C(F)(F)F)c1)c1cc(Cl)ccc1O + COc1ccc(-c2ccc3c(N4CCOCC4)nc(N4C[C@@H](C)O[C@@H](C)C4)nc3n2)cc1CO [KU0063794] (first compound 0.08 µM, partner dose 0.1 µM)	89.8%
O=C(O)[C@@H]1[O][Sb](=[O])([O][Sb]2(=[O])[O][C@H]([C@H](O)CO)[C@H](O)[C@H](C(=O)O)[O]2)[O][C@H]([C@H](O)CO)[C@@H]1O (stereo partly drawn) [stibogluconate] + COc1ccc(-c2ccc3c(N4CCOCC4)nc(N4C[C@@H](C)O[C@@H](C)C4)nc3n2)cc1CO [KU0063794] (first compound 10 µM, partner dose 0.1 µM)	78.9%
O=C(O)c1ccc2c(c1)nc(Nc1cccc(Cl)c1)c1ccncc12 + COC(=O)c1sccc1S(=O)(=O)Nc1ccc(Nc2ccccc2)cc1OC [GSK0660] (first compound 2 µM, partner dose 5 µM)	90%
O=C(O)c1ccc2c(c1)nc(Nc1cccc(Cl)c1)c1ccncc12 + O=C(O)C(=O)Nc1sc2c(c1C(=O)O)CCNC2 [TCS401] (first compound 2 µM, partner dose 8.33333 µM)	91.7%
O=C(O)c1ccc2c(c1)nc(Nc1cccc(Cl)c1)c1ccncc12 + Oc1cc(-c2nc(-c3ccccc3)[nH]c2-c2ccncc2)ccc1Cl [L779450] (first compound 2 µM, partner dose 1 µM)	51.1%
O=C(Nc1ccccc1)c1cc([N+](=O)[O-])ccc1Cl + O=C(O)C(=O)Nc1sc2c(c1C(=O)O)CCNC2 [TCS401] (first compound 10 µM, partner dose 8.33333 µM)	121%
Cn1nnc2c(C(N)=O)ncn2c1=O [temozolomide] + O=C1NC(=O)/C(=C/c2ccc(-c3ccc(F)cc3O)o2)S1 [AS252424] (first compound 10 µM, partner dose 5 µM)	88.1%
O=C(Nc1ccccc1)c1cc([N+](=O)[O-])ccc1Cl + O=c1cc(-c2cccc3c2Sc2ccccc2S3)oc(N2CCOCC2)c1 [KU55933] (first compound 10 µM, partner dose 5 µM)	79.6%
Cn1nnc2c(C(N)=O)ncn2c1=O [temozolomide] + COC(=O)c1sccc1S(=O)(=O)Nc1ccc(Nc2ccccc2)cc1OC [GSK0660] (first compound 10 µM, partner dose 5 µM)	108%
